# The campaign covered roughly 230,000 compounds. Fewer than 10 were called active. The inconclusive results got no clear call from the source; some entries with a clear call stand among them for comparison. Calls come from the whole dose curve; as a rule, active = well fitted curve in the direction sought with a large enough effect; inconclusive = small, poorly fitted or top-dose-only effect, or effect the other way, or another doubt; inactive = no such curve, though single readings can be large or run the other way. Potencies of inconclusive entries are left out as doubtful fits.
# Biological target: Runt-related transcription factor 1 (Homo sapiens) + Core-binding factor subunit beta (Homo sapiens) (UniProt Q01196+Q13951)
# Test: qHTS Assay for Compounds Blocking the Interaction Between CBF-beta and RUNX1 for the Treatment of Acute Myeloid Leukemia; for activity, negative = inhibition: % of control where 0% means no effect
# Settings: AlphaScreen CBFb-His/RUNX1-biotin binding, biochemical; activity, negative = inhibition: at 59.8 µM (top of the series) unless noted
# Method in brief: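 CBF-beta (His) and RUNX1 (biotin), 30 nM each; 20 min preassociation; + compound, 15 min; + beads 50 ng each (Ni, streptavidin), 90 min; RT; AlphaScreen read.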
# Sequence of UniProt Q01196 (Q01196 whole entry, looked up): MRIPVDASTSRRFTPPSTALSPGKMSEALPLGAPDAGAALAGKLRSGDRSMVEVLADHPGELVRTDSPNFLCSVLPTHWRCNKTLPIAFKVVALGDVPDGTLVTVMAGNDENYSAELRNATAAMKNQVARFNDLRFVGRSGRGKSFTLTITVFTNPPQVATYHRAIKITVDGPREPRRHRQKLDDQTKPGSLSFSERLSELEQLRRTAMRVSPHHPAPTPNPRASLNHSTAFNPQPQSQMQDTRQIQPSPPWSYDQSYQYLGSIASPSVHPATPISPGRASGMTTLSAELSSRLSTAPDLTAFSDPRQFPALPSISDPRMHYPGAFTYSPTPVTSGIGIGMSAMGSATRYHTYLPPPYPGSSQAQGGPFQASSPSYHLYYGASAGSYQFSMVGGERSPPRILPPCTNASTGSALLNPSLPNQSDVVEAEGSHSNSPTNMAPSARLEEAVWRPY
# Sequence of UniProt Q01196 (Q13951 whole entry, looked up): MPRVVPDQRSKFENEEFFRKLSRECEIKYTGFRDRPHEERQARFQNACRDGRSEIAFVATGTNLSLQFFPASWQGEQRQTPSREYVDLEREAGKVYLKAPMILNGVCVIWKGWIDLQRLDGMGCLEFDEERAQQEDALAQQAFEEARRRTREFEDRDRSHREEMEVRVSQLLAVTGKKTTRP
Molecule,"activity, negative = inhibition",Potency
O=C(CCSc1nc2ccccc2s1)N/N=C/c1c(O)ccc2ccccc12,inactive: 5.76%,–
CC(=O)Nc1ccc(Nc2nc(Cl)nc(Nc3ccc(NC(C)=O)cc3)n2)cc1,inactive: 6.19%,–
CCn1ncc(NC(=S)Nc2ccc(OC)c(OC)c2)c1C(N)=O,–,"inconclusive [inhibitor, full curve]"
Nc1cc(=O)[nH]c(SCc2cccc(Cl)c2)n1,–,"inconclusive [inhibitor, single point]"
COCC1CCCCN1Cc1cn[nH]c1-c1ccc(OC)cc1OC (stereo not given),–,"inconclusive [activator, single point]"
COc1cc(/C=C(\C#N)c2nc3ccccc3[nH]2)cc(Br)c1OCc1ccc(F)cc1,inactive: 2.91%,–
Nc1ncnc2nc(-c3ccc(N4CCOCC4)nc3)cc(-c3cccc(Br)c3)c12,–,"inconclusive [activator, partial curve]"
Cc1cccc(C2=NN(c3ccc(Br)cc3)[C@@H](C(=O)N3CCOC3=O)[C@@H]2c2ccc(F)cc2)c1,–,"inconclusive [activator, partial curve]"
Cc1ccc(C(=O)Nc2sc3c(c2C(=O)O)CCCCC3)o1,inactive: 28.1%,–
CN1CCc2nc(NC(=O)COc3ccc(C#N)cc3)sc2C1,inactive: -0.306%,–
CCCOc1ccccc1C1C(C(=O)OC)=CN(C(C)C)C=C1C(=O)OC,–,"inconclusive [activator, single point]"
c1ccc(CC(NCc2ccco2)c2ccccc2)cc1 (stereo not given),–,"inconclusive [activator, full curve, poor fit]"
Cc1nc2c(-c3ccc(Cl)cc3)cnn2c2c1CCC2,–,"inconclusive [activator, single point]"
NC(=O)N=Nc1c(O)[nH]c2c(Br)cc(Br)cc12,–,"inconclusive [activator, single point]"
N/N=C(\c1ccccc1)C12CN3CN(CN(C3)C1)C2,–,"inconclusive [activator, single point]"
CCCCCCCCCCCCC/C=C\[C@@H](O)[C@@H](N)CO,–,"inconclusive [inhibitor, single point]"
COc1ccc(-c2nc(-c3ccccc3)c(-c3cc([N+](=O)[O-])ccc3C)[nH]2)cc1OC,–,"inconclusive [inhibitor, single point]"
C/C(=N\NC(=S)NCc1ccccc1)c1ccc(C(C)(C)C)cc1,inactive: -6.6%,–
COc1ccc(OC)c(Nc2nc(-c3sc(C)nc3C)cs2)c1,–,"inconclusive [inhibitor, single point]"
COc1ccc2oc(-c3ccc(O)cc3)cc(=O)c2c1,inactive: 2.2% [at 21.7 µM],–
CN1CC(c2ccccn2)C2(SC(=S)N(Cc3ccccc3)C2=O)C12C(=O)Nc1ccccc12 (stereo not given),–,"inconclusive [inhibitor, partial curve]"
CC(=O)Nc1ccc(C(=O)Nc2nc(-c3ccccn3)cs2)cc1,–,"inconclusive [activator, single point]"
O=C(c1ccc2nc(-c3ccco3)c(-c3ccco3)nc2c1)N1CCN(c2ccccc2)CC1,–,"inconclusive [inhibitor, single point]"
Cc1ccc(NCCC(=O)c2ccc(Cl)cc2)cc1,inactive: 4.48%,–
H-RFARKGALRQKNV-NH2,–,"inconclusive [activator, single point]"

Molecule,"activity, negative = inhibition",Potency
COc1ccc(OC)c(N=c2oc3cc(O)ccc3cc2C(N)=O)c1,inactive: -18.9%,–
CCN(CC)c1ccc(/C=N/NC(=O)Cc2cccs2)cc1,inactive: -6.94%,–
Cn1nnnc1SCc1cccc(CSc2nnnn2C)n1,inactive: 2.83%,–
Cc1nc(NC(C)c2ccccc2)c2oc3ccccc3c2n1 (stereo not given),inactive: -6.35%,–
CCOC(=O)N1CCC(N(CCOC)C(=S)Nc2cccc(SC)c2)CC1,inactive: -0.196%,–
Cc1ccc(S(=O)(=O)Nc2c(C)n(C)n(-c3ccccc3)c2=O)cc1C(=O)OCC(=O)N1CCCC(C)C1 (stereo not given),inactive: 3.69%,–
O=C(N[C@H]1CCCc2ccccc21)O[C@@H]1C(=O)c2cc(Br)ccc2O[C@H]1c1ccc2c(c1)OCO2,inactive: 3.71%,–
C/C(=N/NC(=O)c1ccncc1)c1cc2ccc(O)cc2oc1=O,–,"inconclusive [inhibitor, partial curve]"
N#Cc1c(-c2ccco2)cc(-c2ccccc2)[nH]c1=O,–,"inconclusive [inhibitor, partial curve]"
O=C(Nc1cscc1S(=O)(=O)c1ccccc1)c1ccccc1Cl,inactive: 15.6%,–
Cc1nc2ccccc2n1CCc1ccccc1,inactive: 12%,–
O=[N+]([O-])c1cc(S(=O)(=O)c2ccc(N3CCCCC3)c([N+](=O)[O-])c2)ccc1N1CCCCC1,–,"inconclusive [inhibitor, partial curve]"
CN1C=CC=C/C1=C1\SC(=S)N(N)C1=O,inactive: -4.85%,–
CCOC(=O)C1=C(C)NC(=S)NC1c1ccc(-c2cccc(Cl)c2C)o1 (stereo not given),inactive: -3.24%,–
CC(C)(C)NC(=S)Nc1ccc(Br)cc1,inactive: 3.82%,–
NCC(O)c1ccc(O)c(O)c1 (stereo not given),–,"inconclusive [inhibitor, full curve, poor fit]"
CCOc1cc(/C=C2/SC(=S)N(CC3CCCO3)C2=O)ccc1O (stereo not given),inactive: -10.7%,–
COc1ccc(OC)c(-n2c(N)c(C(=O)NCC3CCCO3)c3nc4ccccc4nc32)c1 (stereo not given),–,"inconclusive [activator, partial curve]"
O=C(CCOc1ccccc1)Nc1nnc(-c2ccc3c(c2)OCCO3)o1,inactive: -4.91%,–
C=CCn1c(=NC(=O)c2cccs2)sc2cccc(OC)c21,–,"inconclusive [activator, partial curve]"
COc1ccc(-c2ccc(-c3noc(C(C)C)n3)c(OC)n2)cc1,–,"inconclusive [activator, partial curve]"
Cc1ccc(C(=O)CC2(O)C(=O)N(C)c3ccccc32)s1 (stereo not given),inactive: -6.27%,–
O=C(N/N=C/c1cccn1-c1cccc(C(=O)O)c1)Nc1ccccc1,–,"inconclusive [inhibitor, full curve]"
COc1cc(N)ccc1NC(=O)c1cccs1,–,"inconclusive [inhibitor, single point]"
N#C/C(=C\N1CCN(Cc2ccc3c(c2)OCO3)CC1)c1nc2ccccc2s1,–,"inconclusive [inhibitor, single point]"

# From PubChem BioAssay AID1477 (National Center for Advancing Translational Sciences (NCATS), 2009)
